Measured values reported in PubChem BioAssay AID1963576 (National Center for Advancing Translational Sciences (NCATS), 2024).
In all, about 46,000 compounds went through this assay and about 60 (0.1%) were called active. Another 3% or so got no clear call; they are omitted. Calls follow the shape of the dose curve; as a rule, active = well fitted inhibition curve with a large enough effect; inconclusive = small, poorly fitted or top-dose-only effect; inactive = no such curve, though single readings can be large or run the other way. The list shows a part of the results.

Experiment: Primary qHTS assay for Inhibitors of ovarian cancer metastasis using an organotypic tumor microenvironment (TME) model. Also: nearly all actives have a fitted effect of over 65% in size.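 As to activity change, negative = inhibition: plate controls were DMSO wells for no effect and tomatine positive control wells for full effect.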
Conditions: SKOV3ip1-GFP adhesion/invasion on 3D omental model, fluorescence; series mostly up to 45.8 µM; activity change, negative = inhibition: at the top concentration
Outline: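 Primary human omental fibroblast/mesothelial 3D culture pre-formed 48 h. SKOV3ip1-GFP cells added with compounds (0.36-46 umol/L), incubated 2 h RT/16 h 37 C, fixed; GFP cells quantified at 488/509 nm.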

outcome, inactive:
CCc1ccccc1NC(=O)CN1C(=O)CCSc2ccc(S(=O)(=O)N3CCCC3)cc21, CCN(CC)S(=O)(=O)c1ccc2c(c1)nc(CN(C)C(=O)Nc1ccc(C)c(F)c1)n2C, CCn1nc(-c2ccccc2)c(-c2ccccc2)c(C(=O)Nc2ccc(NC(C)=O)cc2)c1=O, COCCCn1c(-c2ccc(S(=O)(=O)N3CCOCC3)cc2)csc1=Nc1ccccc1, O=C(c1ccc2c(c1)N(Cc1ccc(Cl)cc1)C(=O)c1ccccc1S2=O)N1CCCCC1 (stereo not given), Cc1ccc(C(=O)NC2(C(F)(F)F)N=C(c3ccccc3)N(Cc3ccccc3)C2=O)cc1 (stereo not given), CCOc1ccc(NC(=O)Cn2c(=O)n(CCCS(=O)(=O)C3CCCCC3)c(=O)c3ccccc32)cc1, Cc1cccc(NC(=O)CCNS(=O)(=O)c2ccc3c(c2)CCN3C(=O)C2CC2)c1, COC(=O)c1c(C)oc2ccc(N(C(=O)c3ccncc3)S(=O)(=O)c3cc(C)ccc3C)cc12, COc1ccc(-c2nn(-c3ccc(C)cc3)c3c2cnc2ccc(C)cc23)cc1OC, CCCN1CCN(CCCNC(=O)C(CC)n2nc(C)n3c(cc4occc43)c2=O)CC1 (stereo not given), CCN(CC)CCNC(=O)c1cn(CC)c2ccc(S(=O)(=O)N(C)C3CCCCC3)cc2c1=O, Cn1c(C(=O)N2CCC(C(=O)NCCc3ccccc3)CC2)cc2sccc21, CCC(C(=O)NC1CCCCC1)n1c(SCc2cccc(C)c2)nc2ccncc21 (stereo not given), CCN1C(=O)c2ccccc2S(=O)(=O)c2ccc(C(=O)NCc3ccc(OC)cc3)cc21, Cc1cc(=O)n(CC(=O)NC(C)c2ccccc2)c2c1c(C)nn2-c1cccc(F)c1 (stereo not given), CC(NC(=O)c1ccco1)c1nc(-c2ccccc2)no1 (stereo not given), NC(=O)CSc1nc2c(oc3ccccc32)c(=O)n1Cc1ccccc1, O=S(=O)(NCC(c1ccco1)N1CCN(c2ccccc2)CC1)c1ccccc1 (stereo not given), CCSc1ncc(Cl)c(C(=O)N(Cc2ccccc2)c2ccc(OC)cc2)n1, CCOc1cccc(NC(=O)c2sc3nc(-c4ccc(F)cc4)ccc3c2N)c1, CCOC(=O)C1CCN(C(c2ccc(OCC)cc2)c2c(O)cc(C)n(CCOC)c2=O)CC1 (stereo not given), Cc1ccc(-c2noc(-c3ccc(NCc4cccnc4)c([N+](=O)[O-])c3)n2)cc1

Activity change, negative = inhibition, inactive:
O=C(OCC1CCCO1)c1ccc2c(c1)N(Cc1ccccc1)C(=O)c1ccccc1S2(=O)=O (stereo not given) -9.43%, Cc1ccc(NC(=O)c2nc(S(C)(=O)=O)ncc2N(Cc2ccco2)Cc2cccs2)cc1C -6.8%, COc1ccc(NC(=O)c2sc3nc(C(F)(F)F)cc(C)c3c2N)cc1OC 0.69%, COc1ccc(N2CCN(C(=O)COCc3cc(-c4ccc5c(c4)OCO5)on3)CC2)cc1 2.51%, COc1ccccc1NC(=O)c1cc2c(C)nn(-c3ccccc3)c2s1 -9.12%, COCCCNC(=O)CSc1nc2cc3c(cc2c(=O)n1CCCC(=O)NCc1ccc2c(c1)OCO2)OCO3 9.46%, Cc1ccccc1OCCSc1nc2ccc(NC(=O)c3cccs3)cc2s1 -8.39%, Cn1c(=O)cc(SCC(=O)N2CCN(c3ccccc3F)CC2)c2ccc(Cl)cc21 0.939%, O=C(NC1CCN(Cc2ccccc2)CC1)c1ccc(Cn2c(=O)c3ccccc3n(Cc3ccc(F)cc3)c2=O)cc1 2.51%, Cc1cc(C)cc(Oc2nc3ccccn3c(=O)c2/C=C(\C#N)c2nc3ccccc3s2)c1 -5.71%, Cc1ccc(-c2csc(=Nc3ccccc3)n2Cc2ccc3c(c2)OCO3)cc1 -17.8%, COc1ccc(OC)c(NC(=O)Nc2c(C)n(C)n(-c3ccccc3)c2=O)c1 -5.71%, Cc1ccc(Cn2ccnc2SCC(=O)Nc2nnc(C)s2)cc1 6.76%, O=C(Cc1ccccc1)Nc1sc2c(c1C(=O)Nc1ccc(Br)cc1)CCCC2 -2.93%, COc1ccc(CNC(=O)c2cc3sccc3n2Cc2ccc(C)cc2)cc1 2.77%, CC1(c2ccc(Cl)cc2)CC(C)(C)N(C(=O)c2cccc(F)c2)c2ccccc21 (stereo not given) 6.1%, CN1CC[C@@H](c2c(O)cc(O)c3c(=O)cc(-c4ccccc4Cl)oc23)[C@@H](O)C1 16.9%, COc1ccc(C(=O)Oc2c(Sc3ccc(C)cc3)c(C)nn2C(C)(C)C)cc1OC -4.65%, COc1ccccc1NC(=O)Cn1c(=O)n(CC(=O)NCc2ccccc2Cl)c(=O)c2sccc21 8.12%, Cc1ccc2c(CNCc3ccc(C)o3)c(C(=O)O)n(Cc3ccc(F)cc3)c2c1 -7.66%, CCOc1ccc(CNC(=O)c2cc(-c3ccc(Cl)s3)nc3ccccc23)cc1 -9.03%, CC(=O)c1ccc(NS(=O)(=O)c2ccc(-n3cccn3)cc2)cc1 33.8%, Cc1ccccc1NC(=O)CSc1nc(-c2ccco2)nc2cc(=O)[nH]n12 8.92%, Cc1ccc(C(=O)Oc2cc(-c3ccc4c(c3)OCO4)cc(=O)c3c(C)oc(C)c23)cc1 -14.1%, COc1ccc(CCNC(=O)CCCn2nc(C)c3sc4ccccc4c3c2=O)c(OC)c1 3.61%, CCOc1ccc(-c2cc(CCCC(=O)NCCc3cc(OC)c(OC)c(OC)c3)no2)cc1 -0.615%, Cc1ccc(NC(=O)Cn2cc(C(=O)C3CCCCC3)c3ccccc32)cc1 3.47%, CCOC(=O)C1CCN(C(c2ccc(C)cc2)c2c(O)cc(C)n(CCOC)c2=O)CC1 (stereo not given) -9.21%, Cc1ccc(-n2ncc3c(N4CCC(Cc5ccccc5)CC4)ncnc32)cc1C 7.54%, Cc1cccc(N(C)C(=O)Cc2c(C(=O)O)[nH]c3ccccc23)c1 4.46%, Cc1ccc(OC(=O)CSc2nnc(-c3ccc4c(c3)OCO4)o2)cc1 -1.01%, Cc1ccc(NC(=O)C2CCC(CNS(=O)(=O)c3cccc4nsnc34)CC2)c(Cl)c1 (stereo not given) 13.4%, Cc1ccc(C(=O)Nc2ccccc2)cc1S(=O)(=O)Nc1ccccc1 24.5%, Cc1ccc(C)c(-n2nnc(-c3nc(-c4ccccc4C)no3)c2C)c1 -3.89%, COC(=O)c1cc2occc2n1CC(=O)Nc1ccc(C)cc1Cl 2.29%, COc1ccc(CCNc2nc3cc(OC)c(OC)cc3c3nc(-c4ccccc4)nn23)cc1OC 8.72%, COC(=O)c1cc(NC(=O)c2sc3ccccc3c2Cl)cc(C(=O)OC)c1 0.94%, CCOc1ccc(-c2nc(CSCC(=O)NCc3ccc(C)cc3)c(C)o2)cc1 -7.71%, O=C(O)c1cccc(-n2cnc3cccnc32)c1 8.54%, O=C(NCC(c1cccnc1)N1CCN(Cc2ccccc2)CC1)C(=O)Nc1cccc(Cl)c1 (stereo not given) 6.3%, CC1=C(C(=O)O)N2C(=O)[C@@H](NC(=O)[C@H](N)C3=CCC=CC3)[C@H]2SC1 15.6%, COc1cccc(NC(=O)c2cc3c(-c4ccc(Cl)cc4)nn(C)c3s2)c1 5.77%, Cc1coc2cc3oc(=O)c(CCC(=O)NCc4ccccc4Cl)c(C)c3cc12 2.06%, COCc1c(Br)c(C)nc2sc3c(=O)n(-c4cccc(Br)c4)nnc3c12 -0.579%, N#Cc1ccccc1CSc1nnc2ccc3ccccc3n12 6.98%, COc1cc(OC)cc(-c2cc3nc(C)c(CCC(=O)Nc4ccccc4OC)c(C)n3n2)c1 8.62%, CCc1ccccc1NC(=O)CSc1nnc(-c2ccccc2)c(-c2ccccc2)n1 -2.13%, O=C(CN(c1ccc(Cl)c(C(F)(F)F)c1)S(=O)(=O)c1ccccc1)Nc1cccnc1 6.54%, COCCNC(=O)Cn1c(=O)c2cccn2c2ccc(F)cc21 -4.46%, O=C(NCc1ccc2c(c1)OCO2)c1ccc2c(c1)N(Cc1ccccc1F)C(=O)c1ccccc1S2=O (stereo not given) -10.2%, CCOC(=O)c1c(-c2ccccc2)oc2ccc(N(C(C)=O)S(=O)(=O)c3ccccc3)cc12 -9.07%, Cc1ccccc1C(=O)Nc1c(C(=O)Nc2cccc(F)c2)oc2ccccc12 31.8%, CCSc1oc(-c2cccs2)nc1S(=O)(=O)c1ccc(Br)cc1 -6.66%, CCc1nnc(NC(=O)c2nc(SC)ncc2Cl)s1 -13%, COc1ccccc1CNC(=O)c1cc2c(-c3ccc(Cl)cc3)nn(C)c2s1 -1.48%, CCn1ccc2c(OCC(=O)Nc3ccc(C(C)=O)cc3)cccc2c1=O -2.58%, COc1ccccc1CNC(=O)C1CCN(C(=O)c2sccc2-n2cccc2)CC1 2.88%, CN(C1CCCCC1)S(=O)(=O)c1ccc2c(c1)c(=O)c(C(=O)NCc1ccc(F)cc1)cn2C -0.347%, CCOc1ccc(Cn2nnc(C(=O)Nc3ccc(Cl)cc3)c2N)cc1 35.1%, CCCN(C(=O)c1c(C)oc2ncnc(N3CCOCC3)c12)c1ccc(Cl)c(Cl)c1 -16.3%, Cc1cccn2c3c(c(=O)nc12)C(c1ccc(F)cc1)CC(=O)N3 (stereo not given) -2.82%, Cc1cc(C)cc(N2CC(c3nnc(NC(=O)c4ccco4)s3)CC2=O)c1 (stereo not given) 13.6%, COc1cc(C(=O)Nc2ccc(-n3c(C)nc4ccccc4c3=O)cc2)cc(OC)c1OC 6.69%, O=C(c1ccccc1)N1CCCC(c2nc3c(nnn3Cc3ccc(F)cc3F)c(=O)[nH]2)C1 (stereo not given) 3.98%, Cc1nc2cccnc2n1C1CCN(C(=O)Nc2ccccc2)CC1 -0.177%, O=C(COCc1cc(-c2cccs2)on1)N1CCN(c2ccc(F)cc2)CC1 7.74%, O=c1c(=O)n(-c2ccccc2)ccn1Cc1c(F)cccc1Cl 6.56%, COc1cc(CNCCSc2nnnn2C)ccc1OCc1ccc(C)cc1 5.06%, O=C(NCc1cccc(F)c1)c1ccc(CN2CC(=O)N3CCCCC3C2=O)cc1 (stereo not given) 12.2%, COc1ccc(CNS(=O)(=O)c2cc(Br)cc3c2N(C(C)=O)C(C)C3)cc1 (stereo not given) -22.8%, CCCCn1c(=NC(=O)c2c(-c3c(F)cccc3Cl)noc2C)c(C(=O)OCC)cc2c(=O)n3ccccc3nc21 -1.47%, O=c1c2oc3ccccc3c2n(Cc2ccc(F)cc2)c(=O)n1Cc1ccco1 -1.42%
